From PubChem BioAssay AID488969 (Vanderbilt High Throughput Screening Facility, 2010)
The full ranking holds about 110,000 compounds; the median of “z-score” is about -0.1, and the highest 2% start at about 2. Some of the results follow. Activity calls are given as the source filed them.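 The calls were made as follows: active = z-score in the third read window above 3 or below -3; inactive = the rest.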

Each molecule was assayed against Metabotropic glutamate receptor 8 (Rattus norvegicus) (UniProt P70579) (assay: rat mGluR8 modulators via GIRK flux, primary screen, cell-based, thallium flux, HTS (AID 488969)). Settings: HEK293 rat mGluR8, GIRK (G protein-gated inwardly rectifying potassium channel) thallium flux, FluoZin2; at 10 µM; stronger effect = higher value; submaximal glutamate (EC20) added with thallium.
Sequence of UniProt P70579 (P70579 whole entry, looked up): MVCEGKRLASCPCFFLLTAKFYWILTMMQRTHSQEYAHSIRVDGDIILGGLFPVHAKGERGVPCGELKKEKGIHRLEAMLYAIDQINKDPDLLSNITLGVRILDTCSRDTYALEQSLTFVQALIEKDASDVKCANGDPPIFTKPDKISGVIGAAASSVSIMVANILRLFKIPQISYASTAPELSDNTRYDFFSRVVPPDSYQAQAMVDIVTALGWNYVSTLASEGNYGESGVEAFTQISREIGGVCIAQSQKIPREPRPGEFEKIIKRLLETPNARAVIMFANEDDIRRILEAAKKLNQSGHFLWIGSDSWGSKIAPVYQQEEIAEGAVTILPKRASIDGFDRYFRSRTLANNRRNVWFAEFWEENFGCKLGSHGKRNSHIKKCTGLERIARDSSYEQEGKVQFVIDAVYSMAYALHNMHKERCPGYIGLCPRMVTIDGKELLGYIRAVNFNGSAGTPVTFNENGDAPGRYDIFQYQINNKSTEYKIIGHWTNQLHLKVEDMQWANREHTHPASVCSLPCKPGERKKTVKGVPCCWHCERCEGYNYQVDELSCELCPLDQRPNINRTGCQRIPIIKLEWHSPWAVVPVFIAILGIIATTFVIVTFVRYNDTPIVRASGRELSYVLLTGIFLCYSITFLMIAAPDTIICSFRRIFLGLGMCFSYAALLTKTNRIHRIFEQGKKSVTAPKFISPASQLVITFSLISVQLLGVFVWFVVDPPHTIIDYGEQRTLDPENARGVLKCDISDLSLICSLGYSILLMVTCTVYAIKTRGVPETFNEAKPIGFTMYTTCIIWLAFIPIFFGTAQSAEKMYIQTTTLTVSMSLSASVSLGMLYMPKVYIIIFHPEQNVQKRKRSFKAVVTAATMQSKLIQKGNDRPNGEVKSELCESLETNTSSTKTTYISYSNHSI
`COc1ccc(-c2cc(C(=O)Nc3ccccc3SC)no2)cc1` was tested, and the z-score was -0.29.
Work on `O=C(Nc1ccccc1NC(=O)NC1CCCCC1)NC1CCCCC1` yielded a z-score of -1.04.
`Cc1ccc(S(=O)(=O)N(C)c2c(C)ccc(S(=O)(=O)Nc3ccncc3)c2C)cc1` was tested, and the z-score was -0.0477.
In the case of `c1ccc(OCCOCCN2CCOCC2)cc1`, the z-score is reported as -0.145.
For `CC(=NCCc1ccccc1)C1=C(O)CCC1=O`, the z-score was -0.157.
Molecule `CCOc1ccccc1OCc1nn2c(COc3ccccc3)nnc2s1` has a z-score of -0.56.
In the case of `CCCNC(=O)C1CCN(c2ccc(S(=O)(=O)N3CCOCC3)cc2Cl)CC1`, the z-score is reported as -0.0395.
In the case of `N/C(=N\c1nc2c(c(=O)[nH]1)CCC2)Nc1ccccc1`, the z-score is reported as 0.214.
`CC/C(O)=C(\C#N)c1nnc2n1CCCCC2` was tested, and the z-score was 0.151.
For `Cc1nc2c(Br)cc(Br)cc2cc1O`, the z-score was -0.787.
`Cc1ccc(-c2csc(NC(=O)c3ccc(-c4ccccc4)cc3)n2)o1` was tested, and the z-score was 0.0391.
With `COc1cccc(-c2nc(Cc3ccc(OC)c(OC)c3)no2)c1` the z-score was -0.0987.
`CO/C([O-])=N/c1c[n+](-c2ccc(Cl)cc2)no1` gave a z-score of 0.215.
Molecule `COCCCNC(=O)c1cccc(NC(=O)c2ccccc2)c1` has a z-score of -0.13.
Work on `CCC(CC)C(=O)Nc1ccc(Sc2ccc([N+](=O)[O-])cc2)cc1` yielded a z-score of -0.22.
`O=C(Cc1ccccc1)N/N=C/c1ccccc1F` showed a z-score of 0.38.
For `Cn1ncc(C#N)c1NC(=O)c1nn2cccnc2c1Cl`, the z-score was 0.268.
Molecule `O=C1CSc2ccc(C(=O)N3CCN(c4ccccn4)CC3)cc2N1` has a z-score of -0.908.
Molecule `CNc1nc(SC)nc(N2CCOCC2)n1` has a z-score of 0.539.
`Cc1ccc(S(=O)(=O)N(C)CC(=O)OCC(=O)N2CCN(c3ccccc3)CC2)cc1` gave a z-score of -0.485.
Work on `N#Cc1nc(COc2ccccc2)oc1N1CCCC1` yielded a z-score of -0.693.
In the case of `COc1ccc(C/C(C)=N/NC(=S)Nc2ccc(C)c(C)c2)cc1`, the z-score is reported as 1.65.
`CCCCNC(=S)NC1CCCC1` gave a z-score of -0.0844.
`Cc1ccc(S(=O)(=O)N2CCN(C(=O)CN3CCOCC3)C2c2ccccc2)cc1` (stereo not drawn) was tested, and the z-score was -0.22.
With `COC(=O)CN(c1ccc(OC)cc1)S(=O)(=O)c1ccc(OC)c(OC)c1` the z-score was 0.17.
With `OCCN=C1CCCc2c1[nH]c1ccc(Br)cc21` the z-score was 0.379.
`CC(=O)Nc1ccc(NC(=O)CSc2ccc(C)cc2)cc1` gave a z-score of 0.00682.
Molecule `Cc1ccccc1CS(=O)(=O)Cc1ccc(C(=O)NCCCN2CCCC2=O)o1` has a z-score of 0.731.
`O=C(c1cccs1)N1CCN(S(=O)(=O)N2CCOCC2)CC1` gave a z-score of -0.194.
In the case of `Cc1ccc(NC(=O)Nc2nnc(Cc3ccc([N+](=O)[O-])cc3)s2)cc1`, the z-score is reported as -0.166.
Work on `COc1ccc(CCC(=O)NC(C)C)cc1` yielded a z-score of 0.289.
Work on `CCOCCn1c(COc2ccccc2)nc2ccccc21` yielded a z-score of -1.53.
`COc1ccc(NC(=O)CSc2nnc(-c3ccccn3)n2N)cc1` was tested, and the z-score was 0.609.
In the case of `O=C(NCCN=C1NS(=O)(=O)c2ccccc21)c1ccc(S(=O)(=O)N2CCOCC2)cc1`, the z-score is reported as 0.246.
`Cc1ccc(NC(=O)C(C)c2ccc(-c3ccccc3)c(F)c2)c(C)c1` (stereo not drawn) showed a z-score of -0.182.
In the case of `Cc1ccccc1NC(=O)N1CCCC(c2nc(-c3ccc(F)cc3)no2)C1` (stereo not drawn), the z-score is reported as -0.159.
Work on `COc1ccc(CNC(=O)COC(=O)C2CC3C=CC2C3)cc1` (stereo not drawn) yielded a z-score of -0.206.
In the case of `COc1ccc(-c2nc(CS(=O)CC(=O)NC3CCCc4ccccc43)c(C)o2)cc1OC` (stereo not drawn), the z-score is reported as -0.169.
With `Cn1c(C(=O)NCCCN2CCCC2=O)cc2c(=O)n(C)c3ccccc3c21` the z-score was -0.963.
For `O=C(CNS(=O)(=O)c1ccc(F)cc1)N1CCN(c2ccccc2)CC1`, the z-score was -0.501.
Work on `Cc1ccsc1C(=O)NNC(=O)Nc1ccc(Cl)c(Cl)c1` yielded a z-score of -0.13.
In the case of `O=C(CSc1nnc(Cn2nnc(-c3ccccc3)n2)n1-c1ccccc1)Nc1ccc(F)cc1`, the z-score is reported as -0.283.
In the case of `O=C(NCc1nnc2c3ccccc3c(-c3ccccc3)nn12)c1ccc(Cl)cc1`, the z-score is reported as -0.606.
`Brc1c(OCCOCCn2cncn2)ccc2ccccc12` gave a z-score of 0.829.
For `O=C(COC(=O)c1ccccc1NC(=O)c1ccccc1)c1ccc([N+](=O)[O-])cc1`, the z-score was -0.202.
With `O=[N+]([O-])c1ccc2c(c1)C(N1CCOCC1)/C(=C/COc1ccc(F)cc1)O2` (stereo not drawn) the z-score was -0.295.
`Cc1c(C(=O)NCc2ccccc2)oc2ccc(S(=O)(=O)N3CCCC3)cc12` was tested, and the z-score was 0.104.
`COC(=O)C1C2C=CC3(CN(C(C)C)C(=O)C13)O2` (stereo not drawn) showed a z-score of -0.0902.
For `CC(C)COC(=O)C(C#N)c1nc2ccccc2nc1N1CCN(Cc2ccc3c(c2)OCO3)CC1` (stereo not drawn), the z-score was -0.426.
In the case of `CC(C)(C)C1CCC2(CC1)NC(CO)(CO)CO2` (stereo not drawn), the z-score is reported as 0.239.
`CC(=O)c1cc2c(cc1NC(=O)CCn1cccc1)OCO2` was tested, and the z-score was -0.085.
Work on `CC1CC(C)CN(S(=O)(=O)c2cccc3cccnc23)C1` (stereo not drawn) yielded a z-score of -0.494.
Molecule `NC(=O)c1cccc2c(=O)oc3ccccc3c12` has a z-score of 0.0601.
With `COc1ccc(N2CCN(C(=O)C3CC(O)CN3S(=O)(=O)c3ccc([N+](=O)[O-])cc3)CC2)cc1` (stereo not drawn) the z-score was 0.00817.
Work on `CNC(=O)CCCc1nc(-c2ccccc2Cl)no1` yielded a z-score of 0.0193.
`CNc1ccc(Br)cc(C(=O)/C=C/c2ccc(OC)cc2)c1=O` gave a z-score of 0.019.
Work on `CC(C)C1OC2(C)OC(=N)C1(C#N)C(C#N)(C#N)C2c1ccccc1` (stereo not drawn) yielded a z-score of -0.139.
`CC(C)(C)C(=O)NC(NC(=S)Nc1sc2c(c1C#N)CCCC2)C(Cl)(Cl)Cl` (stereo not drawn) showed a z-score of -0.0454.
`CCn1c2ccccc2c2cc(CN3CCN(S(=O)(=O)Cc4ccccc4)CC3)ccc21` showed a z-score of -0.382.
Molecule `O=c1cc2c(nn1Cc1cccc(Cl)c1)-c1ccccc1CC2` has a z-score of -0.336.
Molecule `COc1cccc2c1OC1(C)CC2NC(=O)N1` (stereo not drawn) has a z-score of -0.2.
In the case of `CCCOc1cccc(CN2CCCCC2c2cccnc2)c1` (stereo not drawn), the z-score is reported as -0.422.
With `Cc1ccc(Nc2nc(N)c([N+](=O)[O-])c(N3CCOCC3)n2)cc1C` the z-score was -0.153.
In the case of `C/C=C/c1ccc(OCCCCn2cncn2)c(OC)c1`, the z-score is reported as -0.124.
For `Nc1nncn1C(=O)c1cc(Br)ccc1Cl`, the z-score was -0.0769.
`CCOc1ccccc1N(CC(=O)N1CCCCCC1)S(C)(=O)=O` gave a z-score of 0.193.
Molecule `Cc1csc(Sc2nc3c(c(=O)[nH]c(=O)n3C)n2CCCc2ccccc2)n1` has a z-score of -0.516.
Molecule `CCn1c(N)c(C(=O)NC2CCCCC2)sc1=S` has a z-score of -0.324.
`Cc1cc(C)nc(SCc2cc(=O)c(OC(=O)c3ccc(Br)o3)co2)n1` was tested, and the z-score was -0.521.
`COc1ccccc1N1CCN(C(=O)CN(c2cc(C)cc(C)c2)S(C)(=O)=O)CC1` showed a z-score of 0.122.
For `COc1ccccc1N1CCN(S(=O)(=O)c2cc(C)sc2C)CC1`, the z-score was -0.63.
Molecule `Cc1ccc(/C=C/C(=O)N2CCCN(C(=O)/C=C/c3ccc(C)cc3)CC2)cc1` has a z-score of -0.643.
`Cc1cccc(-n2c(=O)c3c(n4cnnc24)-c2ccccc2CC32CCCCC2)c1` gave a z-score of -0.863.
Work on `N#CCSc1nc(Nc2ccc3c(c2)OCO3)c2ccccc2n1` yielded a z-score of -0.556.
With `CC(=O)OCCc1c(C)nc2nc[nH]n2c1=O` the z-score was -1.4.
`COc1ccc(N(CC(O)Cn2c3ccccc3c3ccccc32)S(=O)(=O)c2ccccc2)cc1` (stereo not drawn) gave a z-score of -0.0828.
With `O=c1oc2c(CN3CCOCC3)c(O)ccc2c2c1CCC2` the z-score was 0.00993.
`Cc1ccccc1CN1CCN(C/C=C/c2ccccc2)CC1` was tested, and the z-score was 0.147.
Work on `c1coc(CNC2CCCCCCC2)c1` yielded a z-score of 0.687.
In the case of `O=C(O)Cn1c(SCc2cccc3ccccc23)nc2ccccc21`, the z-score is reported as 1.11.
Molecule `Cc1c(C(=O)OCC(C)C)[nH]c2c1C(=O)CC(c1ccco1)C2` (stereo not drawn) has a z-score of 0.605.
For `O=C(Nc1ccc2oc(-c3ccccc3)nc2c1)c1ccccc1F`, the z-score was 0.205.
In the case of `CSc1cc(C)nc(N(C)C(C)=O)n1`, the z-score is reported as 0.129.
In the case of `CCCNC(=O)c1c(NC(=O)C2COc3ccccc3O2)sc2c1CCCC2` (stereo not drawn), the z-score is reported as 0.754.
For `COc1ccccc1N(CC(=O)NCC(C)C)S(=O)(=O)c1cccs1`, the z-score was -0.207.
In the case of `COc1ccc(OC)c(NC(=O)c2cccc(Cn3cc(Br)c([N+](=O)[O-])n3)c2)c1`, the z-score is reported as -0.176.
Work on `O=c1oc2ccccc2c2c1ncn2CCN1CCOCC1` yielded a z-score of -0.358.
Molecule `CSc1nc(=O)n2cccc(C)c2n1` has a z-score of -0.224.
Work on `O=c1c(Cl)c(NCc2ccccc2)cnn1C12CC3CC(CC(C3)C1)C2` yielded a z-score of -0.198.
`O=C(/C=N/O)NCCCN1CCCCCC1` gave a z-score of 0.186.
`C=CCNC(=O)COC(=O)c1cc(S(=O)(=O)N2CCOCC2)ccc1N1CCCCC1` gave a z-score of -0.5.
`CCOC(=O)CCC(NC(=O)c1ccc(NCN2C(=O)c3ccccc3C2=O)cc1)C(=O)OCC` (stereo not drawn) showed a z-score of -1.04.
Molecule `CCc1ccc(C(=O)/C=C/Nc2ccc(S(=O)(=O)Nc3onc(C)c3C)cc2)cc1` has a z-score of 0.0301.
With `O=C(Nc1c(C(=O)O)oc2ccc(Br)cc12)c1ccccc1` the z-score was -0.64.
In the case of `CC(/C=N/n1c(-c2ccccc2)n[nH]c1=S)=C\c1ccco1`, the z-score is reported as active: 6.02.
With `COc1ccc(OC)c(C(=O)CSc2nc3ccccc3n2CC(=O)NC(C)(C)C)c1` the z-score was -0.0139.
For `O=C(COc1ccc2ccccc2c1)NNC(=O)c1cnccn1`, the z-score was 0.127.
For `CCN(CC)C(=O)C1CCCN(Cc2ccccc2)C1` (stereo not drawn), the z-score was 0.12.
For `Cc1nn(-c2ccc(C(F)(F)F)cn2)c(C)c1Oc1ccccc1O`, the z-score was 2.25.
`CCOC(=O)C(=O)/C(C#N)=C/Nc1ccc(Cl)cc1` gave a z-score of -0.436.
`Cn1c(C(=O)NCc2ccccn2)cc2c(=O)n3ccccc3nc21` showed a z-score of -0.626.
Molecule `COC(=O)c1ccc(COc2cccc3c2CCN(Cc2ccccc2)C3=O)o1` has a z-score of -0.45.
`O=C(NCc1ccccc1)N1CCN(c2ccc(F)cc2)CC1` gave a z-score of -0.204.
`O=c1cc(N2CCc3ccccc3C2)[nH]c(=O)n1Cc1ccc(F)cc1` gave a z-score of -0.108.
`Cn1c(=O)[nH]c(=O)c2c1nc(NCc1ccccc1)n2CCCc1ccccc1` showed a z-score of -0.132.
`Cc1ccc(/C(N)=N/OC(=O)c2cccs2)cc1` was tested, and the z-score was -0.371.
In the case of `COc1ccc(S(=O)(=O)N(C)CC(=O)Nc2ccc(C(F)(F)F)cc2)cc1Cl`, the z-score is reported as 1.57.
In the case of `CCCNS(=O)(=O)c1ccc(CCC(=O)N2CCC(C)CC2)cc1`, the z-score is reported as -0.21.
Molecule `CCOc1ccccc1CNC(=O)C1CCCN(c2nc3ccccc3o2)C1` (stereo not drawn) has a z-score of -0.0784.
`Cc1cc(OCn2ccc(C(=O)O)n2)ccc1Cl` was tested, and the z-score was 4.79e-05.
`COc1ccc(N(C(=O)c2ccco2)S(=O)(=O)c2cc(Cl)c(Cl)cc2Cl)cc1` showed a z-score of -0.048.
`CC(=O)NC(=S)Nc1ccc(NC(=O)COc2ccc(Cl)cc2)cc1` showed a z-score of -0.0633.
`Cc1oc2ccc(OCc3ccc(F)cc3)cc2c1C(=O)O` showed a z-score of -0.0289.
